Lines with a small IC50 respond at low doses; fits outside the tested doses are given as limits. For AUC the same curve is integrated over the 256-fold range of doses and scaled to a fraction; it is 1 without any effect and falls as sensitivity rises. For part of these data: A top dose marked as inferred comes from the curve model; the source does not state it.
Columns and labels:
Assay in all cases: Viability of human cancer cell lines after 72 h of drug (GDSC screen)
Salubrinal = compound: O=C(/C=C/c1ccccc1)NC(NC(=S)Nc1cccc2cccnc12)C(Cl)(Cl)Cl [Salubrinal]; details: top dose 16 µM; top dose inferred
Experimental: (§1)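 Human cancer cell lines in 384-well plates, medium with 10% serum, drug for 72 h over a 256-fold dose range (nine 2-fold or five 4-fold steps up to the top dose). Adherent lines were fixed and stained with the nucleic acid dye Syto60, suspension lines read with resazurin; signal relative to control wells, capped at 0 and 100%. One two-parameter sigmoid per drug and line, fitted in a mixed model over all curves with the slope shared within a line.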

ABT-263 = compound: CC1(C)CCC(c2ccc(Cl)cc2)=C(CN2CCN(c3ccc(C(=O)NS(=O)(=O)c4ccc(N[C@H](CCN5CCOCC5)CSc5ccccc5)c(S(=O)(=O)C(F)(F)F)c4)cc3)CC2)C1 [ABT-263]; details: top dose 2 µM; top dose inferred
Experimental: as §1

PIK-93 = compound: CC(=O)Nc1nc(C)c(-c2ccc(Cl)c(S(=O)(=O)NCCO)c2)s1 [PIK-93]; details: top dose 20 µM
Experimental: as §1

GW843682X = compound: COc1cc2ncn(-c3cc(OCc4ccccc4C(F)(F)F)c(C(N)=O)s3)c2cc1OC [GW843682X]; details: top dose 0.256 µM
Experimental: as §1

GW 441756 = compound: Cn1cc(/C=C2\C(=O)Nc3cccnc32)c2ccccc21 [GW 441756]; details: top dose 2 µM; top dose inferred
Experimental: as §1

piperlongumine = compound: COc1cc(/C=C/C(=O)N2CCC=CC2=O)cc(OC)c1OC [piperlongumine]; details: top dose 10 µM
Experimental: as §1

Cell Line	AUC (Salubrinal)	IC50 (Salubrinal) [µM]	AUC (ABT-263)	IC50 (ABT-263) [µM]	AUC (PIK-93)	IC50 (PIK-93) [µM]	AUC (GW843682X)	IC50 (GW843682X) [µM]	AUC (GW 441756)	IC50 (GW 441756) [µM]	AUC (piperlongumine)	IC50 (piperlongumine) [µM]
CGTH-W-1 (thyroid, adherent)	0.957	> 16	0.977	> 2	0.874	19.2	0.928	> 0.256	0.831	1.26	0.684	2.04
SUP-M2 (anaplastic large cell lymphoma, suspension)	0.832	7.06	0.983	> 2	0.858	10.6	0.597	0.0276	0.994	> 2	0.711	2.07
SJSA-1 (bone, adherent)	0.964	> 16	0.964	> 2	0.866	> 20	0.576	0.0265	0.924	> 2	0.771	4.32
BV-173 (chronic myeloid leukaemia, suspension)	0.837	8.97	0.139	0.0114	0.857	13.2	0.522	0.0183	0.964	> 2	0.763	3.2
LU-165 (small cell lung carcinoma, suspension)	0.975	> 16	0.976	> 2	0.861	> 20	0.929	> 0.256	0.987	> 2	0.831	7.43
LU-134-A (small cell lung carcinoma, suspension)	0.979	> 16	0.6	0.24	0.793	9.78	0.666	0.048	0.98	> 2	0.812	5.79
RPMI-8866 (chronic myeloid leukaemia, suspension)	0.968	> 16	0.461	0.0986	0.394	0.654	0.727	0.0666	0.976	> 2	0.668	1.77
EW-16 (Ewing sarcoma, adherent)	0.966	> 16	0.751	0.685	0.489	1.17	0.485	0.0146	0.973	> 2	0.664	1.83
OPM-2 (myeloma, suspension)	0.968	> 16	0.958	> 2	0.517	1.38	0.812	0.107	0.992	> 2	0.897	8.36
IST-MEL1 (melanoma, adherent)	0.936	> 16	0.959	> 2	0.804	12.3	0.615	0.0353	0.981	> 2	0.684	2.27
NH-12 (neuroblastoma, adherent)	0.983	> 16	0.491	0.117	0.767	8.31	0.966	> 0.256	0.983	> 2	0.816	6.39
MC-CAR (haematopoietic neoplasm, suspension)	0.931	> 16	0.23	0.023	0.287	0.339	0.68	0.0479	0.989	> 2	0.753	3.02
MFM-223 (breast, adherent)	0.989	> 16	0.911	> 2	0.892	> 20	0.974	> 0.256	0.89	> 2	0.69	2.12
NCI-SNU-16 (stomach, suspension)	0.907	> 16	0.951	> 2	0.991	> 20	0.448	0.0117	0.991	> 2	0.823	4.99
SU-DHL-16 (B-cell lymphoma, suspension)	0.798	5.37	0.604	0.224	0.06	0.0846	0.618	0.0308	0.996	> 2	0.865	5.12
DND-41 (T-cell leukaemia, suspension)	0.977	> 16	0.499	0.124	0.292	0.353	0.577	0.0253	0.437	0.0858	0.821	4.92
LB831-BLC (bladder, adherent)	0.919	> 16	0.957	> 2	0.91	> 20	0.828	0.162	0.975	> 2	0.783	4.3
TE-5 (oesophagus, adherent)	0.923	> 16	0.89	> 2	0.945	> 20	0.559	0.0238	0.973	> 2	0.767	4.27
MS-1 (small cell lung carcinoma, suspension)	0.843	9.59	0.665	0.341	0.827	10.5	0.492	0.0152	0.989	> 2	0.834	5.56
C2BBe1 (large intestine, adherent)	0.975	> 16	0.858	> 2	0.924	> 20	0.957	> 0.256	0.981	> 2	0.828	7.36
IST-SL1 (small cell lung carcinoma, semi-adherent)	0.89	> 16	0.712	0.505	0.735	5.97	0.832	0.17	0.974	> 2	0.797	4.86

From the supplement of paper PMC4967469
